Measured values reported in PubChem BioAssay AID624202 (National Center for Advancing Translational Sciences (NCATS), 2012).
Screen size: about 380,000 compounds; about 4,000 (1.1%) were called active. Inconclusive results, whose numbers are uncertain, are shown with a selection of clear calls. The call rests on the fitted dose curve; in most records, active means well fitted activation curve with a large enough effect; inconclusive means small, poorly fitted or top-dose-only effect; inactive means no such curve, though single readings can be large or run the other way. Potencies beside an inconclusive call are fits to weak or partial responses and may not hold up.

experiment: qHTS Assay to Identify Small Molecule Activators of BRCA1 Expression; conditions: MCF7-BRCA1-FFLuc reporter, luminescence, 48 h; activation: at 46.1 µM (top of the series), scaled: vehicle 0%, 10 µM genistein 100% unless noted; further: nearly all actives have a fitted effect of over 80% in size
Method in brief: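 MCF7 cells carrying a BRCA1-firefly luciferase reporter (2000 cells/well, phenol-red free MEM) were attached for 2 h at 37 °C, then given compounds for 48 h. Luminescence was read 15 min after luciferase reagent; activity normalized to genistein (10 microM) and DMSO.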
Potency means the concentration at half of the fitted maximal effect; tags describe the fitted curve by direction and shape.

SMILES | Potency | activation
Cc1cccn2cc(COc3cccc([N+](=O)[O-])c3)nc12 | inconclusive: 11.2 µM [activator, partial curve, poor fit] | –
Cc1ccc(OCC(=O)Nc2cccc(-c3nnc(-c4ccccc4)o3)c2)cc1 | inconclusive: 3.55 µM [activator, full curve, poor fit] | –
Cc1ccc(-c2noc(-c3ccoc3C)n2)cc1 | inconclusive: 12.6 µM [activator, partial curve, poor fit] | –
Cc1cc(C(=O)COc2cccc([N+](=O)[O-])c2)c(C)n1C1CC1 | active: 7.08 µM | –
Cc1cccc(N(C)c2ncnc3onc(-c4ccc(F)cc4)c23)c1C | – | inactive: -67.6%
NC(=O)c1cccnc1Nc1ccccc1F | inconclusive: 12.6 µM [activator, partial curve, poor fit] | –
Fc1ccc(-n2cc(-c3ccccc3)c3c(N4CCOCC4)ncnc32)cc1 | – | inactive: -43.1%
Cc1ccccc1-c1cc(=O)c2ccccc2o1 | – | inactive: -26.3%
CC(C)CC(=O)NC(=S)Nc1ccc(Cl)cn1 | inconclusive: 17.8 µM [activator, partial curve, poor fit] | –
CC(C)(C)C(=O)NNC(=O)c1cc(C(C)(C)C)nn1Cc1ccccc1 | – | inactive: -2.06%
Nc1ccccc1C#Cc1ccccc1 | active: 11.2 µM | –
Cc1nc(SCC(=O)c2ccccc2)c(C#N)c(-c2ccco2)c1C(=O)NCc1ccco1 | – | inactive: -38.6%
O=C(Cc1cccc2ccccc12)Nc1ccccc1C(=O)O | inconclusive: 17.8 µM [activator, single point] | –
CN(N=O)c1ccc2c(c1)Cc1ccccc1-2 | inconclusive: 35.5 µM [activator, single point] | –
O=C(NCCSc1ccccc1)c1ccccc1F | inconclusive: 7.08 µM [activator, partial curve, poor fit] | –
CCOc1ccc(-c2ccc(SCC(=O)Nc3nnc(C)s3)nn2)cc1 | inconclusive: 12.6 µM [activator, partial curve, poor fit] | –
CC(=O)c1ccc(OC(C)c2nc3ccccc3s2)cc1 (centres undefined) | active: 6.31 µM | –
Clc1ncccc1-c1nnn(-c2ccccc2)n1 | inconclusive: 1.78 µM [activator, partial curve, poor fit] | –
C=CCn1c(SCc2ccccc2)nc2scc(-c3ccc(C)o3)c2c1=O | – | inactive: 4.89%
Cc1ccc(N/C=C2/Sc3ccccc3NC2=O)cc1 | inconclusive: 1.58 µM [activator, full curve, poor fit] | –
CC(C)(C)c1cc(NC(=O)c2cccc([N+](=O)[O-])c2)no1 | inconclusive: 3.16 µM [activator, partial curve, poor fit] | –
CCOC(=O)c1nnn2c1nc(N1CCOCC1)c1ccccc12 | – | inactive: -22.4%
O=C(NCCc1ccccc1)c1cc(-c2ccco2)on1 | inconclusive: 1.58 µM [activator, partial curve, poor fit] | –
Cc1nc(N)[nH]c(=O)c1CCCNc1ccc(CCC2(CCl)OCCO2)cc1 | inconclusive: 12.6 µM [activator, partial curve, poor fit] | –
COc1ccccc1NC(=O)c1csc2c1CCC(C)C2 (centres undefined) | – | inactive: 18.7%

SMILES | Potency | activation
O=C(CCOc1ccccc1)NO | – | inactive: 18.6%
Cc1cc(OCC(=O)O/N=C(\N)c2ccccc2)ccc1Br | inconclusive: 8.91 µM [activator, partial curve, poor fit] | –
Oc1ccc(NC(=S)N=Nc2c(O)[nH]c3ccc(Br)cc23)cc1 | – | inactive: -52%
COC(=O)c1cc(Cl)c(NC(=O)C(C)C)cc1OC | – | inactive: -9.46%
CC(=O)c1cccc(Nc2ccc(-c3ccccc3F)nn2)c1 | active: 11.2 µM | –
COC(=O)c1sc2nc(-c3ccco3)ccc2c1N | inconclusive: 0.501 µM [activator, full curve, poor fit] | –
Cc1cc(C(=O)CSc2nnc(N)s2)c(C)n1Cc1ccco1 | inconclusive: 15.8 µM [activator, partial curve, poor fit] | –
Cc1csc(NC(=O)c2ccc3c(c2)OCO3)n1 | inconclusive: 2.24 µM [activator, full curve, poor fit] | –
CC(=O)N1CCN(c2ccc(NC(=O)c3cccc(F)c3)cc2)CC1 | inconclusive: 15.8 µM [activator, partial curve, poor fit] | –
CC(=O)N1CCc2cc(S(=O)(=O)CCC(=O)N3CCC(C)CC3)ccc21 | – | inactive: 2.84%
COc1ccc(C(=O)CN2Cc3ccccc3C2=N)cc1 | inconclusive: 3.16 µM [activator, partial curve, poor fit] | –
O=C(O)c1ccccc1CSc1nc2ccccc2o1 | active: 8.91 µM | –
N#Cc1ccccc1OCC(=O)NC1CCCCC1 | inconclusive: 35.5 µM [activator, single point] | –
CCOc1ccc(/C=N/NC(=O)Cc2cccs2)cc1 | inconclusive: 12.6 µM [activator, partial curve, poor fit] | –
COc1cc(C=O)ccc1OCCSc1ccc(Cl)cc1 | inconclusive: 12.6 µM [activator, partial curve, poor fit] | –
CC/C(C)=N/Nc1nc(-c2cc3cccc(OC)c3oc2=O)cs1 | inconclusive: 1.41 µM [activator, full curve, poor fit] | –
CCOc1ccc(/C=C2/SC(=O)NC2=S)cc1 | – | inactive: 67.9%
S=C(NCCc1ccccc1)N1CCN(C(c2ccccc2)c2ccccc2)CC1 | – | inactive: -27.3%
Cc1cc(-c2ccc3c(c2)COc2c4ccccc4nn2-3)on1 | inconclusive: 0.631 µM [activator, full curve, poor fit] | –
COc1ccc(N2CCc3c(C)nc4c(OC)cccc4c32)cc1 | – | inactive: -12.7%
CC1CCCCN1C(=O)COC(=O)c1n[nH]c2ccccc12 (centres undefined) | active: 10 µM | –
Cc1cccn2c(N)c(-c3ccccc3)nc12 | inconclusive: 17.8 µM [activator, single point] | –
NC(=S)c1ccc(OCCCc2ccccc2)cc1 | inconclusive: 12.6 µM [activator, partial curve, poor fit] | –
COc1cccc(NC(=O)C(=O)NCCC2CCCCN2S(=O)(=O)c2cccs2)c1 (centres undefined) | inconclusive: 11.2 µM [activator, partial curve, poor fit] | –
